# Some of the results follow.
# How the values were obtained:
# Experiment in all cases: glycan array binding signal (z-score within array); higher = stronger binding
# Conditions in all cases: glycan notation: IUPAC condensed, linker removed
# [1] = molecular target: Gal(a1-3)Gal(b1-3)GlcNAc(b1-6)GalNAc
# Method in brief: (§1)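 The binding signal is a Z-score computed within each array and averaged over linkers. Arrays of the same protein sequence at different concentrations or buffers were also averaged together. Data originate from 3228 arrays in the Consortium for Functional Glycomics database, kept only where the protein sequence was available.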
# [2] = molecular target: Gal(a1-3)Gal(b1-3)[Fuc(a1-4)]GlcNAc(b1-2)Man(a1-3)[Gal(a1-3)Gal(b1-3)[Fuc(a1-4)]GlcNAc(b1-2)Man(a1-6)]Man(b1-4)GlcNAc(b1-4)GlcNAc
# Method in brief: as §1
# [3] = molecular target: Gal(a1-3)Gal(b1-4)Glc
# Method in brief: as §1
# [4] = molecular target: Gal(a1-3)Gal(b1-4)GlcNAc
# Method in brief: as §1
# [5] = molecular target: Gal(a1-3)Gal(b1-4)GlcNAc(b1-2)Man
# Method in brief: as §1
# [6] = molecular target: Gal(a1-3)Gal(b1-4)GlcNAc(b1-2)Man(a1-3)[Gal(a1-3)Gal(b1-4)GlcNAc(b1-2)Man(a1-6)]Man(b1-4)GlcNAc(b1-4)GlcNAc
# Method in brief: as §1
# [7] = molecular target: Gal(a1-3)Gal(b1-4)GlcNAc(b1-3)GalNAc
# Method in brief: as §1
# [8] = molecular target: Gal(a1-3)Gal(b1-4)GlcNAc(b1-6)GalNAc
# Method in brief: as §1
# [9] = molecular target: Gal(a1-3)Gal(b1-4)[Fuc(a1-3)]GalNAc
# Method in brief: as §1
# [10] = molecular target: Gal(a1-3)Gal(b1-4)[Fuc(a1-3)]GlcNAc
# Method in brief: as §1
# [11] = molecular target: Gal(a1-3)Gal(b1-4)[Fuc(a1-3)]GlcNAc(b1-2)Man(a1-3)[Gal(a1-3)Gal(b1-4)[Fuc(a1-3)]GlcNAc(b1-2)Man(a1-6)]Man(b1-4)GlcNAc(b1-4)GlcNAc
# Method in brief: as §1
# [12] = molecular target: Gal(a1-3)GalNAc
# Method in brief: as §1
# [13] = molecular target: Gal(a1-3)GlcNAc
# Method in brief: as §1
# [14] = molecular target: Gal(a1-3)[Gal(a1-4)]Gal(b1-4)GlcNAc
# Method in brief: as §1
# [15] = molecular target: Gal(a1-4)Gal(b1-3)GlcNAc(b1-2)Man(a1-3)[Gal(a1-4)Gal(b1-3)GlcNAc(b1-2)Man(a1-6)]Man(b1-4)GlcNAc(b1-4)GlcNAc
# Method in brief: as §1
# [16] = molecular target: Gal(a1-4)Gal(b1-4)Gal
# Method in brief: as §1
# [17] = molecular target: Gal(a1-4)Gal(b1-4)GalNAc
# Method in brief: as §1
# [18] = molecular target: Gal(a1-4)Gal(b1-4)Glc
# Method in brief: as §1
# [19] = molecular target: Gal(a1-4)Gal(b1-4)GlcNAc
# Method in brief: as §1
# [20] = molecular target: Gal(a1-4)Gal(b1-4)GlcNAc(b1-2)Man(a1-3)[Gal(a1-4)Gal(b1-4)GlcNAc(b1-2)Man(a1-6)]Man(b1-4)GlcNAc(b1-4)GlcNAc
# Method in brief: as §1
# [21] = molecular target: Gal(a1-4)Gal(b1-4)GlcNAc(b1-3)Gal(b1-4)Glc
# Method in brief: as §1
# [22] = molecular target: Gal(a1-4)GlcNAc
# Method in brief: as §1
# [23] = molecular target: Gal(a1-6)Glc
# Method in brief: as §1
# [24] = molecular target: Gal(b1-2)Gal
# Method in brief: as §1
# [25] = molecular target: Gal(b1-3)Gal
# Method in brief: as §1
# [26] = molecular target: Gal(b1-3)Gal(b1-4)GlcNAc
# Method in brief: as §1
# [27] = molecular target: Gal(b1-3)Gal(b1-4)GlcNAc(b1-2)Man(a1-3)[Gal(b1-3)Gal(b1-4)GlcNAc(b1-2)Man(a1-6)]Man(b1-4)GlcNAc(b1-4)GlcNAc
# Method in brief: as §1
# [28] = molecular target: Gal(b1-3)GalNAc
# Method in brief: as §1
# [29] = molecular target: Gal(b1-3)GalNAc(a1-3)[Fuc(a1-2)]Gal(b1-4)Glc
# Method in brief: as §1
# [30] = molecular target: Gal(b1-3)GalNAc(a1-3)[Fuc(a1-2)]Gal(b1-4)GlcNAc
# Method in brief: as §1
# [31] = molecular target: Gal(b1-3)GalNAc(b1-3)Gal
# Method in brief: as §1
# [32] = molecular target: Gal(b1-3)GalNAc(b1-3)Gal(a1-4)Gal(b1-4)Glc
# Method in brief: as §1
# [33] = molecular target: Gal(b1-3)GalNAc(b1-3)Gal(b1-4)Glc
# Method in brief: as §1
# [34] = molecular target: Gal(b1-3)GalNAc(b1-3)Gal(b1-4)GlcNAc
# Method in brief: as §1
# [35] = molecular target: Gal(b1-3)GalNAc(b1-4)Gal(b1-4)Glc
# Method in brief: as §1
# [36] = molecular target: Gal(b1-3)GalNAc(b1-4)[Neu5Ac(a2-3)]Gal(b1-4)Glc
# Method in brief: as §1
# [37] = molecular target: Gal(b1-3)GlcNAc
# Method in brief: as §1
# [38] = molecular target: Gal(b1-3)GlcNAc(a1-3)Gal(b1-4)GlcNAc
# Method in brief: as §1
# [39] = molecular target: Gal(b1-3)GlcNAc(a1-6)Gal(b1-4)GlcNAc
# Method in brief: as §1
# [40] = molecular target: Gal(b1-3)GlcNAc(b1-2)Man
# Method in brief: as §1
# [41] = molecular target: Gal(b1-3)GlcNAc(b1-2)Man(a1-3)[Gal(b1-3)GlcNAc(b1-2)Man(a1-6)]Man(b1-4)GlcNAc(b1-4)GlcNAc
# Method in brief: as §1
# [42] = molecular target: Gal(b1-3)GlcNAc(b1-2)Man(a1-3)[Gal(b1-3)GlcNAc(b1-2)Man(a1-6)]Man(b1-4)GlcNAc(b1-4)[Fuc(a1-6)]GlcNAc
# Method in brief: as §1
# [43] = molecular target: Gal(b1-3)GlcNAc(b1-2)Man(a1-3)[GlcNAc(b1-4)][Gal(b1-3)GlcNAc(b1-2)Man(a1-6)]Man(b1-4)GlcNAc(b1-4)GlcNAc
# Method in brief: as §1
# [44] = molecular target: Gal(b1-3)GlcNAc(b1-2)[Gal(b1-3)GlcNAc(b1-6)]Man(a1-6)[Gal(b1-3)GlcNAc(b1-2)Man(a1-3)]Man(b1-4)GlcNAc(b1-4)GlcNAc
# Method in brief: as §1
# [45] = molecular target: Gal(b1-3)GlcNAc(b1-3)Gal(b1-3)GlcNAc
# Method in brief: as §1
binder,measurement,setting,value
Gal 7 (Homo sapiens) (protein) MSNVPHKSSLPEGIRPGTVLRIRGLVPPNASRFHVNLLCGEEGGSDAALHFNPRLDTSEVVFNSKEGGSWGREERGPGVPFGRGQPFEVLIIASDDGFKAVVGDAQYHHFRHRLPLARVRLVEVGGDVQLDSVRIF,glycan array binding signal (z-score),[1],-0.186
same,glycan array binding signal (z-score),[2],0.347
same,glycan array binding signal (z-score),[3],-0.304
same,glycan array binding signal (z-score),[4],0.303
same,glycan array binding signal (z-score),[5],-0.282
same,glycan array binding signal (z-score),[6],-0.245
same,glycan array binding signal (z-score),[7],-0.281
same,glycan array binding signal (z-score),[8],-0.147
same,glycan array binding signal (z-score),[9],-0.351
same,glycan array binding signal (z-score),[10],-0.242
same,glycan array binding signal (z-score),[11],0.003
same,glycan array binding signal (z-score),[12],-0.237
same,glycan array binding signal (z-score),[13],-0.34
same,glycan array binding signal (z-score),[14],-0.311
same,glycan array binding signal (z-score),[15],-0.011
same,glycan array binding signal (z-score),[16],-0.366
same,glycan array binding signal (z-score),[17],-0.355
same,glycan array binding signal (z-score),[18],-0.185
same,glycan array binding signal (z-score),[19],-0.251
same,glycan array binding signal (z-score),[20],0.477
same,glycan array binding signal (z-score),[21],0.016
same,glycan array binding signal (z-score),[22],-0.289
same,glycan array binding signal (z-score),[23],-0.293
same,glycan array binding signal (z-score),[24],-0.316
same,glycan array binding signal (z-score),[25],-0.328
same,glycan array binding signal (z-score),[26],-0.341
same,glycan array binding signal (z-score),[27],0.71
same,glycan array binding signal (z-score),[28],-0.006
same,glycan array binding signal (z-score),[29],-0.188
same,glycan array binding signal (z-score),[30],-0.303
same,glycan array binding signal (z-score),[31],-0.119
same,glycan array binding signal (z-score),[32],-0.224
same,glycan array binding signal (z-score),[33],1.38
same,glycan array binding signal (z-score),[34],0.962
same,glycan array binding signal (z-score),[35],-0.308
same,glycan array binding signal (z-score),[36],-0.318
same,glycan array binding signal (z-score),[37],-0.304
same,glycan array binding signal (z-score),[38],-0.126
same,glycan array binding signal (z-score),[39],-0.327
same,glycan array binding signal (z-score),[40],-0.229
same,glycan array binding signal (z-score),[41],-0.047
same,glycan array binding signal (z-score),[42],0.027
same,glycan array binding signal (z-score),[43],0.217
same,glycan array binding signal (z-score),[44],0.045
same,glycan array binding signal (z-score),[45],0.415

# From the supplement of paper PMC8728848
